The whole screen tested about 270,000 compounds, of which about 620 (0.23%) were called active. The inconclusive results got no clear call from the source; some entries with a clear call stand among them for comparison. Calls follow the shape of the dose curve; as a rule, active = well fitted inhibition curve with a large enough effect in the polarisation, with a control signal flat (not every such curve was filed as active); inconclusive = small, poorly fitted or top-dose-only effect, or effect the other way, or a change in a side signal; inactive = no such curve, though single readings can be large or run the other way; the % refers to the polarisation. Where the call is inconclusive, the potency comes from a doubtful curve fit. A note “side channel” means that the fit belongs to a control or component signal, not to the main read-out.
molecular target: Menin (Homo sapiens) (UniProt O00255); experiment: qHTS Assay for Inhibitors Targeting the Menin-MLL Interaction in MLL Related Leukemias: Competition With Texas Red Labeled MLL-derived Mutant Peptide; conditions: fluorescence polarization; FP activity change, negative = inhibition: at 61.6 µM (top of the series); as to FP activity change, negative = inhibition: % of control where 0% means no effect
Sequence of UniProt O00255 (O00255 whole entry, looked up): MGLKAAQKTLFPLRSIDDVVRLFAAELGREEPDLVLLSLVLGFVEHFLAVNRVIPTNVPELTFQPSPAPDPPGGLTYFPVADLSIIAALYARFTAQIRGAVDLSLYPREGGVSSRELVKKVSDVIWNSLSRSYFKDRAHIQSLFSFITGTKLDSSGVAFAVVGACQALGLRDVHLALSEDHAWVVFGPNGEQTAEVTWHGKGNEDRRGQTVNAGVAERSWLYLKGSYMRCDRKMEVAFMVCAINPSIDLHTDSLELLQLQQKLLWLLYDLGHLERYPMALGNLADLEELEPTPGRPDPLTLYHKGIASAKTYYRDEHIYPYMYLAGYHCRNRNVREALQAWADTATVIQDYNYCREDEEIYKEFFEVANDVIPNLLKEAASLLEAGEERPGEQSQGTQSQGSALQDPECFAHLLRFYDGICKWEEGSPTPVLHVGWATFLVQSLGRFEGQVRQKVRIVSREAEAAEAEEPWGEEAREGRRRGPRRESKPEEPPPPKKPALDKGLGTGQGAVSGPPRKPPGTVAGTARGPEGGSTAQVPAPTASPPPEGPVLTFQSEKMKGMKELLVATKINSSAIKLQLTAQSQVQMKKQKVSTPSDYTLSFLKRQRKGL
Potency is read from the fitted curve at half-maximal effect; tags tell the direction and shape of the fitted curve or compound fluorescence and quenching.

Potency, inactive:
Cc1nc(-c2cn[nH]c2)c2cc(C)oc2n1, CCN1CCN(C(=O)c2cc3ccc(OC)cc3[nH]2)CC1, CCOC(=O)Cn1c(-c2ccc(Cl)nc2)nc2ccccc21, Cc1c(C(=O)N2CCOCC2)oc2ccc(S(=O)(=O)N3CCCC3)cc12

Potency, inconclusive:
COc1cc(N=Cc2c(O)[nH]c3ccccc23)cc(OC)c1OC 22.4 µM [quencher, side channel, single point], CC(=O)Nc1ccc(C#Cc2ccc(NC(C)=O)cc2)cc1 35.5 µM [inhibitor, single point], COc1ccc(OC)c(S(=O)(=O)Nc2ccc(O)c3ccccc23)c1 15.8 µM [quencher, side channel, partial curve], CC(=O)C(Sc1nc(N2CCOCC2)nc(N2CCOCC2)n1)C(=O)Nc1ccccc1 (stereo unspecified) 1.41 µM [inhibitor, partial curve], CC1=C(C#N)C(=O)NC(=O)/C1=C\c1ccc(-c2cc(C)c(C)cc2[N+](=O)[O-])o1 28.2 µM [quencher, side channel, single point], O=c1cc(CO)oc(CN2CCN(CCO)CC2)c1O 39.8 µM [fluorescent, side channel, single point], CCc1ccc(OCCCCN(C)Cc2ccccc2)cc1 10 µM [inhibitor, partial curve], COc1ccccc1NC(=O)COc1ccccc1C(=O)Nc1ccccc1 17.8 µM [quencher, side channel, partial curve], COc1ccc(OC)c(-n2cnc3cc(C(=O)NCCCN4CCOCC4)ccc32)c1 28.2 µM [fluorescent, side channel, single point], CCOC(=O)C1(Cc2cccc(OC)c2)CCN(C/C=C/c2ccc(OC)cc2)CC1 5.62 µM [fluorescent, side channel, partial curve], Cc1ccc(-c2nnc(N3CCOCC3)c3ccccc23)cc1S(=O)(=O)N(C)C 35.5 µM [inhibitor, partial curve], CN(C)CCN(Cc1cccs1)c1ccccn1 39.8 µM [inhibitor, single point], FC(F)(F)Oc1ccc(Nc2nc3ccccc3o2)cc1 31.6 µM [quencher, single point], CCCOc1ccc(-c2nc(-c3ccc([N+](=O)[O-])cc3)cs2)cc1 20 µM [quencher, single point], O=C(CCCN1C(=O)/C(=C\c2ccco2)SC1=S)Nc1cccc2ccccc12 2.82 µM [quencher, side channel, single point], COc1ccc(N2C(=O)/C(=C/c3ccc([N+](=O)[O-])cc3)N=C2C)c(OC)c1 31.6 µM [quencher, side channel, single point], CCN(CC)c1ccc(/C=c2\sc3nc4ccccc4n3c2=O)c(O)c1 15.8 µM [inhibitor, partial curve], COc1cc(N/N=C(\C)c2ccc(N)cc2)nc(-c2ccccc2)n1 8.91 µM [quencher, side channel, partial curve], CSc1cccc(NC(=O)C2CCCN2S(=O)(=O)c2ccc(Br)s2)c1 (stereo unspecified) 11.2 µM [quencher, side channel, partial curve], COc1ccc(CC(=O)Nc2ccc(-c3nnc(-c4ccc(C)cc4)o3)cc2)cc1 20 µM [inhibitor, single point], COC(=O)c1c(NC(=O)CCN2CCOCC2)sc2c1CCCC2 8.91 µM [fluorescent, side channel, full curve, poor fit], Cc1cc(C)c(CSc2ncc(-c3ccc([N+](=O)[O-])cc3)[nH]2)c(C)c1 10 µM [quencher, side channel, partial curve], Cc1noc(NS(=O)(=O)c2ccc(NC(=O)c3cc(-c4ccccc4Cl)nc4ccccc34)cc2)c1C 12.6 µM [quencher, side channel, partial curve], COc1ccc(C(CC(=O)Nc2ncccc2C)N2Cc3ccccc3C2=O)cc1OC (stereo unspecified) 14.1 µM [inhibitor, partial curve], COc1cccc(C(=O)Nc2cccc(-c3nnc(-c4ccco4)o3)c2)c1 28.2 µM [quencher, side channel, single point], COc1cccc(Nc2ncccc2C(=O)NCc2ccccc2)c1 7.94 µM [quencher, side channel, partial curve], COc1ccc(CNC(=O)CSc2nnc3c(n2)[nH]c2ccc(F)cc23)cc1 39.8 µM [fluorescent, side channel, single point], COc1cccc(NC(=S)N(CCc2c(C)[nH]c3ccccc23)Cc2ccco2)c1 10 µM [quencher, side channel, partial curve], O=C(OCc1cc(Cl)ccc1OC(F)F)c1ccc([N+](=O)[O-])o1 39.8 µM [quencher, side channel, single point], COc1cc(-c2nnc(COC(=O)CSc3cc(C)c4ccccc4n3)o2)cc(OC)c1OC 0.631 µM [inhibitor, full curve, poor fit], FC(F)(F)c1cccc(Sc2cc(C(F)(F)F)nc(-c3ccccn3)n2)c1 8.91 µM [fluorescent, side channel, full curve, poor fit], Oc1ccc(N2CCN(c3ncnc4sc5c(c34)CCC5)CC2)cc1 31.6 µM [quencher, side channel, partial curve], CCCn1c(C(C)Nc2nc(-c3ccc(Cl)c([N+](=O)[O-])c3)cs2)nc2ccccc21 (stereo unspecified) 25.1 µM [quencher, side channel, partial curve], O=c1c2oc3ccccc3c2ncn1Cc1ccccc1Cl 17.8 µM [inhibitor, partial curve], CCOC(=O)c1cccc(-n2c(-c3ccc(OC)cc3)nc3nc4ccccc4nc32)c1 4.47 µM [fluorescent, side channel, full curve, poor fit], COc1cc(/C=N/NC(=O)c2cc(-c3ccccc3)nc3ccccc23)cc(OC)c1O 15.8 µM [quencher, side channel, partial curve], C=CCn1c(O)c(N=NC(=S)Nc2ccc(OC)cc2)c2ccccc21 14.1 µM [quencher, side channel, partial curve], Cc1ccc(NS(=O)(=O)c2cc([N+](=O)[O-])ccc2NNC(=S)Nc2cc(C)ccc2C)c(C)c1 11.2 µM [quencher, side channel, partial curve], CCSc1ncc(Cl)c(C(=O)Nc2ccccc2Cl)n1 20 µM [inhibitor, partial curve], CCOc1ccc(-c2n[nH]c(=S)c3ccccc23)cc1 25.1 µM [fluorescent, side channel, single point], O=C(O)c1ccc(Cl)c(S(=O)(=O)Nc2cccc(C(=O)Nc3cccc(C(F)(F)F)c3)c2)c1 25.1 µM [quencher, side channel, partial curve], COc1ccc(NC(=O)N(C2CCCCC2)C2CCN(C(C)C)CC2)c(OC)c1 3.16 µM [inhibitor, partial curve], O=C(Nc1nnc(SCc2ccccc2)s1)c1cccs1 25.1 µM [quencher, side channel, single point], Cc1ccc(S(=O)(=O)N2CCCC(C(=O)N3CCCc4ccccc43)C2)cc1 (stereo unspecified) 7.08 µM [inhibitor, single point], CCOc1cc(/C=N/N=C2/NC(=O)C(CC(=O)O)S2)ccc1OS(=O)(=O)c1ccc(C)cc1 (stereo unspecified) 28.2 µM [quencher, side channel, single point], c1ccc(-c2noc(-c3ccc4c(c3)OCO4)n2)cc1 20 µM [inhibitor, single point], Cc1cccc(N2CC(C(=O)Nc3nnc(SCC(=O)N4CCOCC4)s3)CC2=O)c1 (stereo unspecified) 25.1 µM [quencher, side channel, partial curve], COc1cc(/C=C/c2ccc3cccc(O)c3n2)c(Br)cc1O 3.55 µM [quencher, side channel, full curve], COc1ccc(NC(=O)c2cc(-c3ccncc3)nc3ccc(Br)cc23)cc1OC 0.794 µM [quencher, side channel, full curve], CC(CCc1ccccc1)NC(=O)c1ccc(NC(=O)c2ccccc2)cc1 (stereo unspecified) 39.8 µM [inhibitor, single point]

Potency, active:
CC(C)n1cc(/C=C2/SC(=O)N(CC(=O)Nc3ccc4c(c3)OCO4)C2=O)c2ccccc21 7.94 µM

FP activity change, negative = inhibition, inactive:
CCOC(=O)N/N=C1/C[C@@H](O)[C@@H](O)[C@@H]2[C@@H]3C(=O)N(c4cccc(Oc5ccccc5)c4)C(=O)[C@H]3CC[C@H]12 -16.4% [at 11.7 µM]
